Results taken from the supplement of paper PMC4604168 (melanoma cell lines).
The other results are listed elsewhere or left out. Single values are uncertain, as repeats are few or missing.

Tests used:
Experiment in all cases: cell count relative to DMSO control; melanoma cells; higher = more viable cells
Conditions in all cases: library dose: standard library concentration; 72 h
G361 = tested on: G361
IPC-298 = tested on: IPC-298
IST-MEL1 = tested on: IST-MEL1
LB2518-MEL = tested on: LB2518-MEL
LOXIMVI = tested on: LOXIMVI
MEL-HO = tested on: MEL-HO
MZ2-MEL = tested on: MZ2-MEL
MeWo = tested on: MeWo
RPMI7951 = tested on: RPMI7951
RVH-421 = tested on: RVH-421
SkMel28 = tested on: SkMel28
SkMel2 = tested on: SkMel2
SkMel30 = tested on: SkMel30
SkMel5 = tested on: SkMel5
UACC257 = tested on: UACC257
UACC62 = tested on: UACC62
WM115 = tested on: WM115
WM1716 = tested on: WM1716
WM1745 = tested on: WM1745
WM3526 = tested on: WM3526
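Further: cells treated in 1,536-well plates, then fixed and DAPI-stained, with nuclei counted from automated high-throughput microscope images.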

Row | SMILES | cell count (G361) [%] | cell count (IPC-298) [%] | cell count (IST-MEL1) [%] | cell count (LB2518-MEL) [%] | cell count (LOXIMVI) [%] | cell count (MEL-HO) [%] | cell count (MZ2-MEL) [%] | cell count (MeWo) [%] | cell count (RPMI7951) [%] | cell count (RVH-421) [%] | cell count (SkMel28) [%] | cell count (SkMel2) [%] | cell count (SkMel30) [%] | cell count (SkMel5) [%] | cell count (UACC257) [%] | cell count (UACC62) [%] | cell count (WM115) [%] | cell count (WM1716) [%] | cell count (WM1745) [%] | cell count (WM3526) [%]
1 | CS(=O)(=O)CCNCc1ccc(-c2ccc3ncnc(Nc4ccc(OCc5cccc(F)c5)c(Cl)c4)c3c2)o1 [lapatinib] + NCC(=O)Nc1ccc(-n2nc(C(F)(F)F)cc2-c2ccc3c(ccc4ccccc43)c2)cc1 [OSU03012] (first compound 4 µM, partner dose 5 µM) | 8.45 | 53.7 | 62.2 | 42.8 | 41 | 38.4 | 39.8 | 55 | 1.84 | 38.5 | 21.6 | 34.4 | 18.3 | 30.7 | 70.6 | 30.8 | 58.4 | 70.2 | 57.4 | 41.8
2 | C[C@@H](Oc1cc(-c2cnn(C3CCNCC3)c2)cnc1N)c1c(Cl)ccc(F)c1Cl [Crizotinib] + Cc1nc(Nc2ncc(C(=O)Nc3c(C)cccc3Cl)s2)cc(N2CCN(CCO)CC2)n1 [dasatanib] (first compound 1 µM, partner dose 0.02 µM) | 68.9 | 80.2 | 63.9 | 70.5 | 31.6 | 73.5 | 59.5 | 70.2 | 39.2 | 145 | 47 | 81.5 | 97.1 | 43.3 | 61.6 | 55.8 | 45.2 | 45.6 | 23 | 71.7
3 | CS(=O)(=O)CCNCc1ccc(-c2ccc3ncnc(Nc4ccc(OCc5cccc(F)c5)c(Cl)c4)c3c2)o1 [lapatinib] + Nc1ncn([C@H]2C[C@H](O)[C@@H](CO)O2)c(=O)n1 [decitabine] (first compound 4 µM, partner dose 0.5 µM) | 73.6 | 62.1 | 78.2 | 70.6 | 116 | 83.4 | 59.1 | 68.1 | 41.6 | 60.1 | 81.2 | 90.7 | 92.7 | 57.2 | 95.5 | 62.1 | 74.6 | 78.9 | 77.5 | 86.2
4 | C=CCNC1=C2C[C@@H](C)C[C@H](OC)[C@H](O)[C@@H](C)/C=C(\C)[C@H](OC(N)=O)[C@@H](OC)/C=C\C=C(/C)C(=O)NC(=CC1=O)C2=O [Tanespimycin] + C[C@@H]1CCN(C(=O)CC#N)C[C@@H]1N(C)c1ncnc2[nH]ccc12 [CP690550] (first compound 0.01 µM, partner dose 5 µM) | 65 | 100 | 76.2 | 75.8 | 101 | 98.8 | 109 | 86.6 | 44.6 | 75.3 | 87.4 | 92.7 | 106 | 85.4 | 104 | 42.8 | 29.8 | 85.2 | 67.5 | 93.6
5 | CN1CCN(c2ccc3nc(-c4c(N)c5c(F)cccc5[nH]c4=O)[nH]c3c2)CC1 [Dovitinib] + C=CCNC1=C2C[C@@H](C)C[C@H](OC)[C@H](O)[C@@H](C)/C=C(\C)[C@H](OC(N)=O)[C@@H](OC)/C=C\C=C(/C)C(=O)NC(=CC1=O)C2=O [Tanespimycin] (first compound 0.5 µM, partner dose 0.01 µM) | 66.2 | 69.2 | 72.7 | 40.7 | 125 | 75.1 | 48.3 | 42.2 | 19 | 88.1 | 48.4 | 76.7 | 96.8 | 55.2 | 82.2 | 49.4 | 32 | 79.2 | 42.8 | 55.6
6 | CN1CCN(c2ccc3nc(-c4c(N)c5c(F)cccc5[nH]c4=O)[nH]c3c2)CC1 [Dovitinib] + C=CCn1c(=O)c2cnc(Nc3ccc(N4CCN(C)CC4)cc3)nc2n1-c1cccc(C(C)(C)O)n1 [MK1775] (first compound 0.5 µM, partner dose 0.1 µM) | 45.2 | 59.7 | 51.8 | 56.4 | 66 | 71 | 57.4 | 39.8 | 82.1 | 10.4 | 48.6 | 55.1 | 66.7 | 41.5 | 60.8 | 60.3 | 50.6 | 69.3 | 46.4 | 61.2
7 | CS(=O)(=O)CCNCc1ccc(-c2ccc3ncnc(Nc4ccc(OCc5cccc(F)c5)c(Cl)c4)c3c2)o1 [lapatinib] + COc1ccc(Cl)c(Nc2nc3ccccc3nc2NS(=O)(=O)c2cccc(NC(=O)C(C)(C)N)c2)c1 [XL147] (first compound 4 µM, partner dose 4 µM) | 119 | 91.2 | 81.6 | 108 | 82.5 | 80.8 | 66.3 | 76.3 | 62.7 | 74.9 | 91.2 | 90.4 | 84.6 | 84.3 | 86.9 | 59.9 | 105 | 83.5 | 88.7 | 81.8
8 | CS(=O)(=O)CCNCc1ccc(-c2ccc3ncnc(Nc4ccc(OCc5cccc(F)c5)c(Cl)c4)c3c2)o1 [lapatinib] + CC(C)(C)c1cnc(CSc2cnc(NC(=O)C3CCNCC3)s2)o1 [SNS-032] (first compound 4 µM, partner dose 0.05 µM) | 89.6 | 94 | 94.6 | 72.8 | 77.4 | 90.1 | 63.2 | 92.2 | 29.7 | 86.2 | 29.8 | 65.8 | 83.2 | 55 | 87.9 | 40.2 | 53 | 81.4 | 58.2 | 73.1
9 | CN1CCN(c2ccc3nc(-c4c(N)c5c(F)cccc5[nH]c4=O)[nH]c3c2)CC1 [Dovitinib] + OCc1c[nH]c2ccccc12 [Indole-3-carbinol] (first compound 0.5 µM, partner dose 4 µM) | 78.2 | 80.7 | 84 | 65.9 | 102 | 79.5 | 65.6 | 63.2 | 92.2 | 88.8 | 66.4 | 89.4 | 112 | 78.7 | 85 | 95.6 | 67.3 | 85.4 | 61 | 90.4
10 | CNC(=O)c1cc(Oc2ccc(NC(=O)Nc3ccc(Cl)c(C(F)(F)F)c3)cc2)ccn1 [sorafenib] + CC1(C)NC(=O)N(c2ccc([N+](=O)[O-])c(C(F)(F)F)c2)C1=O [nilutamide] (first compound 2 µM, partner dose 5 µM) | 77.6 | 85.4 | 88.1 | 84 | 95.8 | 98.4 | 119 | 93.5 | 103 | 106 | 113 | 83.8 | 85.5 | 68.6 | 86.5 | 77.7 | 104 | 120 | 107 | 77.2
11 | CN1CCN(c2ccc3nc(-c4c(N)c5c(F)cccc5[nH]c4=O)[nH]c3c2)CC1 [Dovitinib] + CC(C)(C)c1cnc(CSc2cnc(NC(=O)C3CCNCC3)s2)o1 [SNS-032] (first compound 0.5 µM, partner dose 0.05 µM) | 67.7 | 91.3 | 81 | 49.8 | 71.5 | 83.5 | 59.1 | 56.6 | 62.8 | 76.4 | 56.5 | 61.5 | 85.4 | 55.5 | 86.4 | 75.6 | 62.7 | 86.8 | 67.8 | 86.4
12 | CN1CCN(c2ccc3nc(-c4c(N)c5c(F)cccc5[nH]c4=O)[nH]c3c2)CC1 [Dovitinib] + C#Cc1cccc(Nc2ncnc3cc(OCCOC)c(OCCOC)cc23)c1 [erlotinib] (first compound 0.5 µM, partner dose 4 µM) | 43.1 | 42.5 | 77.1 | 53.9 | 101 | 55.6 | 41 | 48.9 | 60.7 | 62.7 | 38.5 | 55.1 | 54.8 | 75.3 | 88.4 | 50.3 | 50.8 | 61.5 | 62.8 | 61.5
13 | CN1CCN(c2ccc3nc(-c4c(N)c5c(F)cccc5[nH]c4=O)[nH]c3c2)CC1 [Dovitinib] + COc1cc(Nc2ncc(F)c(Nc3ccc4c(n3)NC(=O)C(C)(C)O4)n2)cc(OC)c1OC [Tamatinib] (first compound 0.5 µM, partner dose 2 µM) | 46.4 | 52.4 | 42.1 | 60.8 | 33 | 58.6 | 43.5 | 41.7 | 48.6 | 82.3 | 56.9 | 45.2 | 83.5 | 41.4 | 73.2 | 79.3 | 70 | 64.1 | 26.3 | 67.4
14 | C=CCNC1=C2C[C@@H](C)C[C@H](OC)[C@H](O)[C@@H](C)/C=C(\C)[C@H](OC(N)=O)[C@@H](OC)/C=C\C=C(/C)C(=O)NC(=CC1=O)C2=O [Tanespimycin] + O=C(CCCCCCC(=O)Nc1ccccc1)NO [vorinostat] (first compound 0.01 µM, partner dose 0.4 µM) | 53.8 | 79.5 | 70.4 | 65.2 | 90.7 | 76.4 | 103 | 62.3 | 43.3 | 73.8 | 45.7 | 59 | 95.7 | 45.2 | 80.7 | 62.4 | 27.6 | 81.1 | 59.4 | 78.4
15 | CNC(=O)c1cc(Oc2ccc(NC(=O)Nc3ccc(Cl)c(C(F)(F)F)c3)cc2)ccn1 [sorafenib] + CO[C@@H]1[C@H](N(C)C(=O)c2ccccc2)C[C@H]2O[C@]1(C)n1c3ccccc3c3c4c(c5c6ccccc6n2c5c31)C(=O)NC4 [Midostaurin] (first compound 2 µM, partner dose 0.4 µM) | 32.4 | 63.2 | 65.1 | 60.7 | 61.3 | 65.4 | 45.1 | 59.3 | 33.3 | 81 | 51.6 | 45.4 | 59.2 | 74.1 | 74 | 69.2 | 37.6 | 45.3 | 44.8 | 56.5
